Measurements published in a compilation of properties of binary mixtures (doi:10.1021/je901058s).
Some of these densities may be calculated back from excess volumes.

Assay: xn = mol fraction of the nth substance listed
Settings: 101 kPa

CCCCCCCCn1cc[n+](C)c1.O=[N+]([O-])[O-] + CCCCO
mass density [kg/m3]
Settings	283.15 K	288.15 K	293.15 K	298.15 K	303.15 K	308.15 K	313.15 K	318.15 K	323.15 K	328.15 K
x2 = 0.168	–	1052.5	1049.3	1046.2	1043	1039.9	–	1033.8	1030.8	1024.7
x2 = 0.261	1043.9	1040.6	1037.4	1034.2	1031.1	1028	1024.9	1021.8	1018.7	1012.6
x2 = 0.358	1029.8	1026.4	–	1019.9	1016.8	–	–	–	1004.1	997.9
x2 = 0.458	1012.7	1009.2	1005.9	–	–	996.2	993	989.8	–	–
x2 = 0.57	989.6	986.1	–	–	976.1	972.8	969.4	966.2	–	956.1
x2 = 0.676	962.6	959.1	–	952.4	–	–	942.1	938.7	–	928.4
x2 = 0.754	938.4	935	931.5	928	924.5	921.1	917.6	914.2	910.6	903.5
x2 = 0.848	902.2	898.7	–	–	888	884.4	880.8	877.2	–	866.4

CCCCCCCCn1cc[n+](C)c1.O=[N+]([O-])[O-] + CCCO
mass density [kg/m3]
Settings	283.15 K	288.15 K	293.15 K	298.15 K	303.15 K	308.15 K	313.15 K	318.15 K	323.15 K	328.15 K
x2 = 0.107	1064.8	1061.4	1058.3	1055.1	1052	1048.8	1045.8	1042.7	1039.7	1033.6
x2 = 0.258	1048.9	–	1042.3	1039.1	–	1032.9	1029.7	–	1023.5	1017.3
x2 = 0.364	1035.1	1031.6	1028.5	1025.3	–	1019	1015.8	1012.4	1009.3	1003
x2 = 0.47	1018.5	1015.1	–	1008.6	1005.4	1002.2	–	995.6	992.3	985.8
x2 = 0.556	1002.2	–	–	992.3	988.9	–	982.3	978.9	975.6	–
x2 = 0.671	975	971.6	–	964.8	961.3	957.9	–	–	947.7	940.9
x2 = 0.756	949	945.5	942	938.4	935	931.4	927.9	924.4	920.9	913.8
x2 = 0.866	902.9	899	895.3	–	887.9	884.3	880.6	876.8	873.1	865.6

CCCCCCCCn1cc[n+](C)c1.O=[N+]([O-])[O-] + CCO
mass density [kg/m3]
Settings	283.15 K	288.15 K	293.15 K	298.15 K	303.15 K	308.15 K	313.15 K	318.15 K	323.15 K	328.15 K
x2 = 0.128	1065.1	1061.6	1058.4	1055.3	1052.1	1048.9	1045.8	–	1039.7	–
x2 = 0.266	1053	1049.6	1046.4	1043.3	1040.1	1036.8	1033.7	1030.6	1027.4	1021.3
x2 = 0.357	1043	–	1036.5	1033.4	1030	1026.7	1023.6	–	1017.2	–
x2 = 0.455	1030	1026.7	–	1020.4	1016.9	1013.6	1010.5	–	1003.8	997.4
x2 = 0.554	–	1010.7	1007.5	1004.3	–	997.2	994	990.4	987.1	–
x2 = 0.662	991.6	988.3	985	981.8	977.9	974.3	970.8	967.1	963.7	956.8
x2 = 0.767	961.3	957.9	–	–	–	943.1	–	935.4	931.8	924.4
x2 = 0.868	915.7	–	908.1	904.8	900.3	896.3	892	888	883.9	876.1
